This note sets out measurements from PubChem BioAssay AID330 (DTP/NCI, 2004).

Inconclusive results and toxic doses are left out. Not every entry of the source has a single result; some have several. They are shown here; other results are not. There may be further records. Values that stand side by side differ for a reason that is not stated; dose, time, organism, isomer or construct need not be as stated for each record.

The test system of this assay is P388 leukemia ip, CD2F1 mice, survival T/C. The assay is described as follows: NCI In Vivo Anticancer Drug Screen. Data for tumor model P388 Leukemia (intraperitoneal) in CD2F1 (CDF1) mice. The following applies: endpoint: median survival time; dose: 8.0 mg/kg/injection; schedule: Q01DX009 (ip); vehicle: water; higher = longer survival.

For the compound `COc1cccc2c1C(=O)c1c(O)c3c(c(O)c1C2=O)C[C@@](O)(/C(C)=N/NC(=O)c1ccc(O)cc1)C[C@@H]3OC1CC(N)C(O)C(C)O1` (stereo partly specified), the T/C was 94 % of control and 181 % of control.
